Data from the RNAGym collection of RNA variant scans (doi:10.7554/elife.90254).
Read counts are not given, so values of variants with three or more changes are uncertain.

B1: LINE1-full (parent)
chain: UACGUAGGUGGUUUUCCCCUGAUAGUGCUAAGGGGGCCUGGAAGUUUGGACUGGGCAGAGCUCAACACAGCGUGGCAAAGUGGCUGUGGCUAGACUGCCUCUCUGGAUUCCUCGUCACUCAGCAGGGCAUCUCUGAGAGAAAUGCC

Variants of: B1
Test: self-cleavage, relative activity (ratio to wild type); higher = more cleavage; in vitro, sequencing; the parent is a self-cleaving ribozyme
Variant G89A U119C U132C has a self-cleavage of 0.04.
U85A A94U A121U showed a self-cleavage of 0.19.
In the case of C90U U130C A142G, the self-cleavage is reported as 0.07.
With U85A U108C A138G the self-cleavage was 0.15.
For U85A U112A A136G, the self-cleavage was 0.01.
U85C U96C U115A gave a self-cleavage of 0.06.
Variant C84U U104C A136G has a self-cleavage of 0.19.
With G93A A140G A142G the self-cleavage was 0.03.
With U85C U115C A117U A141G the self-cleavage was 0.42.
For U87A A140G U143C, the self-cleavage was 0.06.
Work on A92G C131G U143C yielded a self-cleavage of 0.13.
G83C U130C U143C gave a self-cleavage of 1.52.
U87C U115G U132C showed a self-cleavage of 0.
Variant U87C A121G C146U has a self-cleavage of 0.
For U87C U96A G127U, the self-cleavage was 0.13.
C90A A94U U96C A140C gave a self-cleavage of 0.05.
G82A U87A U132C gave a self-cleavage of 0.09.
Work on U85A U134C A140G yielded a self-cleavage of 0.2.
With U87A U109A U143C the self-cleavage was 0.15.
In the case of G83A U85A C111U A136G, the self-cleavage is reported as 0.08.
Variant U91A A92G A124U A129G has a self-cleavage of 0.08.
U87A U119C U143C gave a self-cleavage of 0.11.
Work on G82A U100A A117G yielded a self-cleavage of 0.67.
Work on G82A U87C U130A yielded a self-cleavage of 0.22.
Work on U85C U100A U119C yielded a self-cleavage of 0.28.
Work on U87G U119C A136G A140G yielded a self-cleavage of 1.15.
For U87C U108C A142U, the self-cleavage was 0.13.
With U85C A92U A124G A142G the self-cleavage was 0.
In the case of A92G U104C U115C, the self-cleavage is reported as 0.
With U87A A121G A140G U143C the self-cleavage was 0.
In the case of U85C U115C A121G, the self-cleavage is reported as 0.
Work on G83A U100C A140G yielded a self-cleavage of 0.93.
Work on A92C U96A A121U C128U yielded a self-cleavage of 0.03.
With U85G U108C U109A A136G U143C the self-cleavage was 0.
In the case of G86U A124U A138G, the self-cleavage is reported as 0.04.
Variant U87A A107U U112A has a self-cleavage of 0.1.
U87C U100C U104A showed a self-cleavage of 0.
In the case of U87C A117U A138U, the self-cleavage is reported as 0.24.
Variant U81G U91A U108C has a self-cleavage of 1.84.
With G83A U85C A124C the self-cleavage was 0.03.
With C84G C98U U115G the self-cleavage was 0.09.
With G93A U102C A138G the self-cleavage was 0.02.
With A92G U115C A142U the self-cleavage was 0.
Variant A92U U96C U109C has a self-cleavage of 0.
Variant G88A A94G U104C has a self-cleavage of 0.07.
In the case of C84U U119C A129U, the self-cleavage is reported as 0.08.
G88A A107G A124G A141G gave a self-cleavage of 0.07.
Variant G93U A124U A142G has a self-cleavage of 0.03.
With U85C U100C U104A U130C the self-cleavage was 0.
G88C U132C U134C gave a self-cleavage of 0.07.
For U91C U100C A138G, the self-cleavage was 0.69.
With U87A U109C C118U A124G the self-cleavage was 0.08.
G83A U85A A129G showed a self-cleavage of 0.06.
For G88U U91C U100C, the self-cleavage was 0.17.
With A92G A107U A140U the self-cleavage was 0.11.
Work on U87C A94G C98U A117G yielded a self-cleavage of 0.07.
With A92G G125A U130C the self-cleavage was 0.35.
For G86U U102A U112A, the self-cleavage was 0.05.
In the case of G86A U109C A141G, the self-cleavage is reported as 0.09.
In the case of C90A A94G G127A, the self-cleavage is reported as 0.03.
Work on U87C U119C G144A yielded a self-cleavage of 0.4.
For A92U U132C A138G, the self-cleavage was 0.17.
In the case of U87C A107U A140G, the self-cleavage is reported as 0.36.
In the case of G83A U96A U119A, the self-cleavage is reported as 0.04.
With U91C U119C U130C the self-cleavage was 0.
Variant U87A U134C A138G has a self-cleavage of 0.05.
U91A U130C G139A gave a self-cleavage of 1.13.
For U85C U115C U132C, the self-cleavage was 0.31.
Variant U91A U100A A117G has a self-cleavage of 0.62.
In the case of A94G A121U C145G, the self-cleavage is reported as 0.3.
With U85C U96A A129U U130C the self-cleavage was 0.
U87C U132C A142G gave a self-cleavage of 0.11.
For G88A U100C U104C A121G, the self-cleavage was 0.28.
Work on G93A A140G U143C yielded a self-cleavage of 0.07.
With U85C G86A U134C U143C the self-cleavage was 0.07.
Variant U91A A94C C120U has a self-cleavage of 0.03.
In the case of U85C A94G A142G, the self-cleavage is reported as 0.4.
U85C U102C A121G showed a self-cleavage of 0.
Work on U87C A94U A142G U143C yielded a self-cleavage of 0.36.
Work on U87C G114A U134A yielded a self-cleavage of 0.1.
In the case of A92G C120U G125A, the self-cleavage is reported as 0.
Variant U81G U91C A124G has a self-cleavage of 1.02.
In the case of U91A U102C U119G, the self-cleavage is reported as 0.16.
G82A G88U A107G A142G showed a self-cleavage of 0.05.
With U87A C101U A136G the self-cleavage was 0.07.
Variant G88A U112C A124G has a self-cleavage of 0.08.
Work on U91G A124G A141G yielded a self-cleavage of 0.03.
U87A U108C U119C showed a self-cleavage of 0.09.
G83A U119C C131U gave a self-cleavage of 1.07.
Variant A92G U96A C128A has a self-cleavage of 0.02.
Work on U87C A94G A129G yielded a self-cleavage of 0.86.
A92G U102C A107U gave a self-cleavage of 0.
For U85A A107U U130C, the self-cleavage was 0.09.
Variant U85A A140G A141G has a self-cleavage of 0.07.
U85C U100C U108C gave a self-cleavage of 0.
Variant G82A U91C A138G has a self-cleavage of 1.11.
U87C U100C U130A gave a self-cleavage of 0.16.
For U85C U115C A124G, the self-cleavage was 0.
U91C U112C A140G showed a self-cleavage of 0.83.
C84A A117C A124U gave a self-cleavage of 0.22.
In the case of A92U U96C A121G U134C U143C, the self-cleavage is reported as 0.
Variant U87C U132C A141G has a self-cleavage of 0.29.
Work on U91C A117G G125A yielded a self-cleavage of 0.71.
For U85C A92U U134C, the self-cleavage was 0.3.
For G88A U108C C116U, the self-cleavage was 0.05.
With U87C U119A U130C the self-cleavage was 0.18.
For U91C A129G U134A, the self-cleavage was 0.5.
Variant A92G U100A U104C has a self-cleavage of 0.86.
Work on U91C U102C A107G yielded a self-cleavage of 0.42.
Work on U87A U130A C145U yielded a self-cleavage of 0.1.
In the case of A92U U96C U109A A140G, the self-cleavage is reported as 0.
Work on U85A U112C U119C yielded a self-cleavage of 0.09.
For G86U A92G A136G, the self-cleavage was 0.07.
In the case of G82A U96C G114A U132C, the self-cleavage is reported as 0.05.
A92G U112G A117U C131U gave a self-cleavage of 0.2.
Work on U87A U91G U104A A107G yielded a self-cleavage of 0.
Work on U87A G89C U115A yielded a self-cleavage of 0.05.
With U85A A92G U132C A136U the self-cleavage was 0.06.
In the case of U85A C95U A117G A141G, the self-cleavage is reported as 0.09.
For A92G U96C A124G C131G, the self-cleavage was 0.
Variant G88A G122A U143C has a self-cleavage of 0.08.
With G89A A92G U96C A138U the self-cleavage was 0.14.
Variant U85C A107G U143A has a self-cleavage of 0.16.
Variant U85C U108C A121C has a self-cleavage of 0.
In the case of U85C C98U A142G, the self-cleavage is reported as 0.04.
With U85G U102A U119C the self-cleavage was 0.23.
For U91C U119A U143C, the self-cleavage was 0.82.
Variant G86A U100A U104C A124G U132C has a self-cleavage of 0.03.
Work on U91C U102C C103U A129G yielded a self-cleavage of 0.77.
With C90G U108C C123U the self-cleavage was 0.03.
In the case of U91C A107G A136G, the self-cleavage is reported as 0.59.
C90U U96C A124C gave a self-cleavage of 0.06.
G89U U115C U130A showed a self-cleavage of 0.08.
In the case of A92U U112C C145U, the self-cleavage is reported as 0.49.
U81C U119C A138G gave a self-cleavage of 0.46.
With A94G A117G U134G the self-cleavage was 0.
With U87C C95U U132A A136G the self-cleavage was 0.07.
U85A G97U A107G showed a self-cleavage of 0.04.
U87C A124U A129G gave a self-cleavage of 0.
For G83A A141G A142G, the self-cleavage was 1.19.
A92G G114A A121G A141G showed a self-cleavage of 0.11.
In the case of A92G U115C C118A, the self-cleavage is reported as 0.
Work on C90U U91C C133U A140G yielded a self-cleavage of 0.06.
U85A A107U U134A gave a self-cleavage of 0.1.
In the case of U87A C98A A138G A141G, the self-cleavage is reported as 0.07.
Work on C90U A94G A117C C128G yielded a self-cleavage of 0.02.
For U85C C116U C120A, the self-cleavage was 0.12.
With U85C G97A A141G the self-cleavage was 0.04.
In the case of U81G C90A A92C, the self-cleavage is reported as 0.01.
C84U U104C A117U U130C showed a self-cleavage of 0.18.
In the case of U91A A129G C146U, the self-cleavage is reported as 1.01.
Variant U91C U130C A142G has a self-cleavage of 1.04.
A92U U115C A117G U143A showed a self-cleavage of 0.
Work on U85C C98U C133A yielded a self-cleavage of 0.05.
Variant G86U U115A U143A has a self-cleavage of 0.07.
For U85A G106A A124U A129G C145U, the self-cleavage was 0.09.
For U87A U115A U119C, the self-cleavage was 0.03.
With U87A U104C U119G the self-cleavage was 0.
A92G U100C A121G gave a self-cleavage of 0.
Variant U85A U119C A142G U143A has a self-cleavage of 0.
Variant G93A U132C A141G has a self-cleavage of 0.
C90A A107C U115C showed a self-cleavage of 0.05.
With U81C U109C A121C G125U the self-cleavage was 2.01.
In the case of U85A U130C A140G, the self-cleavage is reported as 0.12.
U91A U102A A124G U134A gave a self-cleavage of 0.63.
Variant C84U A107G A129C has a self-cleavage of 0.22.
With G93U U100C A129G the self-cleavage was 0.23.
